“And” between values parts separate entries of the source, which are not always exact repeats. Equal values may be shown once.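 Step 1: Grow cells in 96-well plates. Step 2: Expose to compound for 48 hours at 5 concentrations. Step 3: Interpolate endpoints linearly; if unreached, use highest concentration. At the GI50, growth is halved. The concentration for full growth arrest is given as TGI.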 Peptide text beside a SMILES is read from it. * marks the point of attachment. Trt = c1ccc(C(c2ccccc2)(c2ccccc2)*)cc1; Cbz = O=C(OCc1ccccc1)*
Tested on: NCI-H322M lung
Assay: DTP human tumour cell line panel, 48 h

Row | Structure (SMILES) | TGI | GI50
1 | Clc1cc2nnn(C3CCCO3)c2cc1Cl (stereo not drawn) | > 100 µM | 
2 | CC[C@@]1(O)C(=O)OCc2c1cc1n(c2=O)Cc2c-1nc1ccccc1c2/C=N\NC(=O)C(N)Cc1c[nH]c2ccccc12 (stereo partly drawn) | > 82.2 µM | 
3 | CN(C)CCCNC(=O)c1cn2c(ccc3sc4ccccc4c(=O)c32)n1 | 21.5 µM | 
4 | CCOC(=O)C(C(=O)COC(C)(C)C)[C@@H]1C=C[C@H](OC(C)=O)C1 (stereo partly drawn) | > 100 µM | 
5 | C=CC[C@H](N=C(SC)SC)C(=O)N1C(=O)N(C)[C@@H](C)[C@H]1c1ccccc1 | > 100 µM | 
6 | Cc1ccc(S[C@@H](C)[C@@](O)(C(N)=O)c2ccccc2)cc1 | > 100 µM | 
7 | Cc1ccc(NC(=O)CC(=O)n2nc(C)c(N=Nc3cccc(C)c3)c2C)cc1 | > 100 µM | 
8 | O=P(O)(O)CN1CCNCCN(CP(=O)(O)O)CC1 | > 100 µM | 
9 | O=C(CCC1CCCCN1)Nc1ccc2c(c1)C(=O)c1ccc(NC(=O)CCN3CCCCC3)cc1C2=O (stereo not drawn) | 35.9 µM | 
10 | N#Cc1nc(/C=C/c2cccnc2)oc1N | > 100 µM | 
11 | S=c1nc[nH]c2c1ncn2C1CCCO1 (stereo not drawn) | > 100 µM | 
12 | COC(=O)/C(=N\Nc1nnc(C)n1N)C(C#N)c1ccccc1 (stereo not drawn) | > 100 µM | 
13 | CN=C(N)N/N=C(\C)c1ccc2c(c1)Cc1ccccc1-2 | 6.1 µM | 2.13 µM
14 | O=C(/C=C/C1C(=O)NC(=O)NC1=O)CC(=O)C(=O)Nc1cc(Cl)c(Cl)cc1Cl | > 100 µM | 
15 | CCCCCCCCCCCCCCCCCC(=O)NCC(COP(=O)(O)O)OCC (stereo not drawn) | > 100 µM | 
16 | CCCCNC1=C(C(=O)OCC)/C(=N/NC(=O)c2ccccc2O)CO1 | > 100 µM | 
17 | COc1cc(/C=N/NC(=O)c2ccccc2Nc2cccc(C(F)(F)F)c2)cc(OC)c1OC | 29.1 µM | 4.49 µM
18 | COc1ccc(CNc2nc3ccccc3nc2C(=O)O)cc1 | > 100 µM | 
19 | O=C1C(c2c(O)[nH]c3ccc(S(=O)(=O)NCCO)cc23)=Nc2ccccc21 | 97.6 µM | 
20 | O=C(O)c1ccc(N/C(=C(/C(Cl)=C(Cl)Cl)[N+](=O)[O-])n2nnc3ccccc32)cc1 | > 100 µM | 
21 | COc1ccc(C)cc1C1CCC(=O)O1 (stereo not drawn) | > 100 µM | 

Row | Structure (SMILES) | TGI | GI50
22 | CC(=O)c1c2c(cc3c1CC1(C3)Cc3cc4c(c(C(=O)O)c3C1)CCC4)CCC2 (stereo not drawn) | > 100 µM | 
23 | Cc1c(O)c(=O)ccn1CCc1ccc(O)cc1 | > 100 µM | 
24 | O=C(NOCCO)c1cc(CN2OCCCC2=O)c(F)c(F)c1Nc1ccc(I)cc1F | 76.8 µM and > 10 µM | 0.206 µM and 0.177 µM
25 | O=C(/C=C/c1ccco1)c1ccc(Nc2nc(Nc3ccc(F)cc3)nc(Nc3ccc(F)cc3)n2)cc1 | > 100 µM | 3.61 µM
26 | CC/C(=C\c1ccc(OC)cc1)c1ccc(OC)cc1 | > 100 µM | 
27 | Cc1ccc(/C=C2/N=C(N/N=C\c3ccccc3)NC2=O)cc1 | > 100 µM | 
28 | COc1cc(C(C#N)NNc2nc(C)cc(=O)[nH]2)cc(OC)c1OC (stereo not drawn) | > 100 µM | 
29 | Nc1ccn(C2OC(C(OC3OC(CO)C(O)C(N)C3O)C(O)C(O)C(O)C(O)CO)C(N)C(O)C2O)c(=O)n1 (stereo not drawn) | > 100 µM | 
30 | CCOC(=O)c1c(C)n(Cc2ccccc2)c2c1cc1oc(=O)c(=O)n3cnc2c13 | > 50 µM | 27.8 µM
31 | CN(C)CN(C)c1nc(N(C)C)nc(N(C)CN(C)C)n1 | > 100 µM | 
32 | CCOC(=O)C1=C(C)N(C2OC(COC(=O)c3ccccc3)C(OC(=O)c3ccccc3)C2OC(=O)c2ccccc2)C(=S)NC1c1ccccc1 (stereo not drawn) | > 100 µM | 
33 | C(#Cc1ccccc1)SC1=C(c2ccccc2)S/C(=C(\SC#Cc2ccccc2)c2ccccc2)S1 | > 100 µM | 
34 | COc1ccc(-n2cnc3c(NC(Cc4ccccc4)C(=O)O)ncnc32)cc1 (stereo not drawn) | > 100 µM | 
35 | Cc1cc2ccc(N)nc2[nH]c1=O | > 100 µM | 
36 | Cc1noc(/N=C2\C=C(Nc3onc(C)c3C)C(=O)c3ccccc32)c1C | > 100 µM | 
37 | CC(=O)c1sc2[n+](c1C)C(=O)/C(=C\c1ccccc1Cl)S2 | > 100 µM | 
38 | S=c1c2ccccc2c(=S)n2n1CC=CC2 | > 100 µM | 
39 | CC(N1CCOCC1)C(O)(c1ccccc1)c1ccccn1 (stereo not drawn) | > 100 µM | 
40 | C=CC(C)(O)CC/C=C(\CO)C(=O)OC1C(C)OC(O[C@](C)(C=C)CC/C=C(\CO)C(=O)O[C@H]2C[C@@]3(C(=O)OC4OC(CO)C(O)C(O)C4OC4OC(C)C(OC5OC(CO)C(O)C5O)C(OC5OC(CO)C(O)C(O)C5O)C4O)C(CC2(C)C)C2=CCC4[C@@]5(C)CC[C@H](OC6OC(COC7OC(C)C(O)C(O)C7OC7OCC(O)C(O)C7O)C(O)C(O)C6NC(C)=O)C(C)(C)C5CC[C@@]4(C)[C@]2(C)C[C@H]3O)C(O)C1O (stereo partly drawn) | 0.294 µM | 0.0793 µM
41 | Cc1cc2nc3c4ccc(Br)cc4n(CCN(C)C)c3nc2cc1C | 6.37 µM | 1.6 µM
42 | CN(C)/C=C/C=C(/C=N/S(=O)(=O)C(F)(F)F)C1C=CN(S(=O)(=O)C(F)(F)F)C=C1 | > 100 µM | 

Row | Structure (SMILES) | TGI | GI50
43 | NC(=O)c1ccc(N(C(N)=O)c2c(F)cccc2F)nc1-c1ccc(F)cc1F | > 100 µM | > 100 µM
44 | c1ccc(-c2nnc3nn4c(-c5ccccc5)cnnc4c3c2-c2ccccc2)cc1 | > 100 µM | 
45 | COC(=O)C(CSC(c1ccccc1)(c1ccccc1)c1ccccc1)NC(=O)C(CC(N)=O)NC(=O)OCc1ccccc1 (stereo not drawn) (Cbz-Asn-Cys(Trt)-OMe; configuration not given here) | 25.5 µM | 3.84 µM
46 | O=C(/C=C/c1ccc([N+](=O)[O-])cc1)c1cccc(Nc2nc(Nc3ccccc3)nc(Nc3ccccc3)n2)c1 | > 100 µM | > 100 µM
47 | CC(=O)OCC1OC(n2c(-c3ccccc3)c(N=Nc3ccc(C)cc3)c(C)c(C#N)c2=S)C(OC(C)=O)C(OC(C)=O)C1OC(C)=O (stereo not drawn) | > 100 µM | 
48 | O=c1[nH]cc(C(F)(C(F)(F)F)C(F)(F)F)c(=O)[nH]1 | > 100 µM | 
49 | CCCCCCCCCCCCCCCCOCC(O)CO (stereo not drawn) | 38.3 µM | 
50 | COc1ccc2c([nH]c3c(O)c(-c4c(C)cc5c([nH]c6c(CC=C(C)C)c(OC)ccc65)c4O)c(C)cc32)c1CC=C(C)C | > 100 µM | 
51 | CC[C@H](C)[C@H](NC(=O)[C@@H](N)CCC(N)=O)C(=O)N[C@@H](Cc1ccc(O)cc1)C(=O)N[C@@H](CCCCN)C(=O)N[C@@H](CCCCN)C(=O)N[C@@H](Cc1ccc(O)cc1)C(=O)N[C@@H](CCCNC(=N)N)C(=O)N[C@H](C(=O)N[C@@H](Cc1c[nH]c2ccccc12)C(=O)N[C@@H](Cc1ccc(O)cc1)C(=O)N[C@@H](CCCNC(=N)N)C(=O)N[C@@H](CCCCN)C(=O)N[C@@H](C)C(=O)N[C@@H](Cc1c[nH]c2ccccc12)C(=O)N[C@@H](CCCCN)C(=O)N[C@H](C(=O)N[C@@H](CC(C)C)C(=O)NCC(=O)N[C@@H](CCCCN)C(=O)N[C@H](C(N)=O)C(C)C)C(C)C)[C@@H](C)O (H-QIYKKYRTWYRKAWKVLGKV-NH2) | 17.5 µM | 4.57 µM
52 | O=c1cc(N2CCCC2)[nH]c(=O)n1-c1ccc(Cl)cc1 | > 100 µM | 
53 | COC(=O)C(=O)C(C(=O)C(=O)Nc1cc(Cl)c(Cl)cc1Cl)c1nc2ccc([N+](=O)[O-])cc2[nH]c1=O (stereo not drawn) | > 100 µM | 
54 | O=CCCCC(Sc1ccccc1)Sc1ccccc1 | > 100 µM | 
55 | O=C(C=C=Nc1ccccc1)C(=O)N=C=Cc1ccccc1 | > 52.5 µM | 20.9 µM
56 | CCCCCCCCCCSC(=N)N | 13.4 µM | 3.54 µM
57 | O=C(Nc1ccc2ccccc2c1)c1cc2cc(CCl)ccc2oc1=O | > 100 µM | 
58 | O=C(/C=C/c1cccc2ccccc12)Nc1ncc(Cc2ccccc2)s1 | > 27.1 µM | 1.35 µM
59 | Cc1ccc(S(=O)(=O)Nn2c(O)c(C#N)c(-c3ccc([N+](=O)[O-])cc3)c(C#N)c2=O)cc1 | > 100 µM | 
60 | C=C(C)[C@@H]1CC[C@]2(CO)CC[C@]3(C)[C@H](CC[C@@H]4[C@@]5(C)CC[C@H](NCO)C(C)(C)[C@@H]5CC[C@]43C)[C@@H]12 | 1.66 µM | 0.904 µM
61 | COc1ccc(C(=O)c2cc3c(N)c(C(=O)Nc4cccc(OC)c4)sc3nc2C)cc1 | > 100 µM | 0.853 µM
62 | CCOC(=O)C(C)N1C(=O)c2ccccc2S1(=O)=O (stereo not drawn) | > 100 µM | 
63 | O=C1/C(=C\c2ccccc2)C2OCC=C3CN4CCC56c7ccccc7N1C5C2C3CC46 (stereo not drawn) | > 100 µM | 89.9 µM

Row | Structure (SMILES) | TGI | GI50
64 | C#CCOCn1cnc2ncnc(N)c21 | > 100 µM | 
65 | CC(C)(C)Sc1nnc(SC(C)(C)C)c2c(=O)[nH]nc(SC(C)(C)C)c12 | 25 µM | 
66 | NS(=O)(=O)c1ccc(NC(=O)c2cccc(NC3=C(Cl)C(=O)N(Cc4ccccc4)C3=O)c2)cc1 | 29.1 µM | 14.7 µM
67 | COC1CC(OC2C(C)OC(OC3C(C)OC(OC4C(C)OC(O[C@H]5CC[C@@]6(C)C(=CC[C@]7(O)[C@@H]6C[C@@H](O)[C@@]6(C)[C@]7(O)CC[C@@]6(O)C(C)=O)C5)CC4OC)CC3OC)CC2OC)OC(C)C1O (stereo partly drawn) | > 12.5 µM | 
68 | O=S(=O)(O)SCCNCCCCCC1CCCCC1 | 23.6 µM | 
69 | Cc1ccc(S(=NS(=O)(=O)c2ccc(C)cc2)c2ccc(C)cc2)cc1 | > 100 µM | 
70 | CC(=O)NC1C(OCc2ccccc2)OC(CO)C(O)C1OCC(=O)N[C@@H](C)C(=O)N[C@H](CCC(=O)NCCCNc1ccc([N+](=O)[O-])c2[nH]c3ccccc3c(=O)c12)C(N)=O (stereo partly drawn) | > 100 µM | 
71 | CC(C)c1ccc(/C=C2\CSCC3=C2N=C2SCC(=O)N2C3c2ccc(C(C)C)cc2)cc1 (stereo not drawn) | > 100 µM | 
72 | Cc1ccc(/C=C2\N=C(N3CCCC(CO)C3)NC2=O)cc1 (stereo not drawn) | > 100 µM | 
73 | CC(NC(=O)C(Cc1ccc(OC(=O)c2ccccc2)cc1)NC(=O)OC(C)(C)C)C(=O)NCC(=O)NC(Cc1ccccc1)C(=O)NN (stereo not drawn) | > 100 µM | 
74 | COc1ccccc1NC(=S)N/N=C/c1cccc(C)n1 | > 100 µM | 
75 | C[C@H](CCC(=O)NCC(=O)O)[C@H]1CC[C@H]2[C@@H]3[C@H](O)C[C@@H]4C[C@H](O)CC[C@]4(C)[C@H]3CC[C@]12C | > 100 µM | 
76 | CC(C)C(NC(=O)C(Cc1ccccc1)NC(=O)[C@H]1CCC[C@H]1NC(=O)C(Cc1ccc(OC(C)(C)C)cc1)NC(=O)OC(C)(C)C)C(N)=O (stereo partly drawn) | > 100 µM | 
77 | O=S(=O)(O)c1cc(S(=O)(=O)O)c2c(N=Nc3ccc(N=Nc4ccccc4)cc3)c(O)ccc2c1 | > 100 µM | 
78 | CC1OC(=O)C(C(C)C)NC(=O)C(C(C)C)OC(=O)C(C(C)C)NC(=O)C(C)OC(=O)C(C(C)C)NC(=O)C(C(C)C)OC(=O)C(C(C)C)NC(=O)C(C)OC(=O)C(C(C)C)NC(=O)C(C(C)C)OC(=O)C(C(C)C)NC1=O (stereo not drawn) | 0.717 µM | 
79 | COc1cc2c3c(cc(Cl)nc3c1OC)C(O)(CC(=O)c1ccccc1)C(=O)N2 (stereo not drawn) | 32.5 µM | 
80 | O=C(Cc1ccccc1)NN1C(=O)/C(=C\c2ccccc2O)SC1=Nc1ccccc1 | > 100 µM | 
81 | CCN(CC)CCO[Si](OCCN(CC)CC)(OCCN(CC)CC)OCCN(CC)CC | > 100 µM | 
82 | C=C(C)[C@@H]1CC[C@]2(C(=O)NC(C)=O)CC[C@]3(C)[C@H](CC[C@@H]4[C@@]5(C)CCCNC(C)(C)[C@@H]5CC[C@]43C)[C@@H]12 | 2.89 µM | 1.55 µM
83 | Cc1ccc(-c2n[nH]c(=O)c3noc(-c4ccc(C)cc4)c23)cc1 | 36.8 µM | 5.06 µM

Source: PubChem BioAssay (NCI)
